Measured values as given in the supplement of paper PMC11417369.
The list shows a part of the results.

Test system: PfSIP2 AP2 domain 1 (GST-tagged)
Experiment: gcPBM binding intensity (ln(normalized median fluorescence intensity)); higher = stronger DNA binding
Method in brief: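 Alexa488 anti-GST antibody, scanned at 488 nm, detected GST-tagged P. falciparum DNA-binding domains that had been expressed in E. coli and incubated for 1 h on an Agilent 4 × 180k array. The array carried primer-extended double-stranded 36-bp intergenic genomic probes and negative controls. Binding intensity is the highest Masliner-normalised natural-log median intensity across replicate spots of either orientation of each probe.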

In order of falling “gcPBM binding intensity (ln)” value:
1. TTTGAGTGCACATACACACAGACATACATTTAAATA [CACACA_site3403]  11.9
2. AAAACAAACAGACACACACACATATATATATATATA [CACACA_site3655]  9.6
3. TACAAGCCCAATTCAAGTACATATATATATATATAT [XGTACX_site5569]  9.57
4. ATAAAAAAATAAATTAGTACATATATATATATATAT [XGTACX_site6971]  9.5
5. TATATTTTTTTAAAAAGTACTTTGTATATATATATA [XGTACX_site1300]  9.42
6. AAAAAAAAAAAAGAAACACACATATATATATATATA [CACACA_site140]  8.95
7. TTAAATTAAAACAAATGTACAAAGTGCATATTTTTT [XGTACX_site8143]  8.31
8. GTTGAACATAGATGCACACACATAAAATAAAAAAAA [CACACA_site5353]  7.74
9. AATTATTTTATGTGAGGTACACCACACATGAAGGGG [XGTACX_site8450]  7.66
10. ATATTTCGTCTAAAAAGTACACAACAATAAAAAGTA [XGTACX_site6668]  7.6
11. AAAAAAAAAAAAAAAAGTACGTATCAAAGCATCAAA [XGTACX_site880]  7.59
12. TTATATATATATATATATATTTACATAATAATATGT [GTGCAC_negctrl_site388]  7.55
13. AATGAACACCTAAAATGTACGTACAAATATATTTTA [XGTACX_site7067]  7.53
14. AAAAAACACAGACACACACACATATACATACATACA [CACACA_site2666]  7.51
15. ACATATATATATAAATATATATATATATAAATATAT [CACACA_negctrl_site895]  7.48
16. TATATATATTTAAGGTGTACATAAATAACAAAATAT [XGTACX_site2641]  7.47
17. CATATATATATATGTACACACATTAATAAAAAAAAA [CACACA_site3230]  7.41
18. TGAAAGTTCAATAATTGTACATGTGGAAATTCATAC [XGTACX_site1378]  7.4
19. ATTCATTCATATGTTACACACACACGCCCACATAAA [CACACA_site7513]  7.33
20. TATTTATGTATATGCTGTACGCATTTGTGAAACATA [XGTACX_site4688]  7.27
21. TATTTATTAATATGTACACACATCAACCATATTAAC [CACACA_site7001]  7.22
22. TTCTTATATATATACACACACAAAATATCTACAATG [CACACA_site736]  7.2
23. TTAGGTTTATACACTACACACATTATTCATAAAAAA [CACACA_site871]  7.18
24. TAAAAAAAGGTTATTGGTACACACATATGTATATAT [XGTACX_site1029]  7.17
25. TTACGCATACTAATTACACACAAATAGATGAATATA [CACACA_site1338]  7.14
26. TAATATATATTATTATGTACATATATTGATTCCTTG [XGTACX_site6830]  7.14
27. ATTTTTTTTTCTTTCGCACACGTGAAAGAATTTCTA [CACACA_site2052]  7.13
28. ATATTATATTATATAACACACATTTTTCATAACACT [CACACA_site407]  7.13
29. ATATAAATATGTTCTGCACACAAATAAGTGTTTGAA [CACACA_site9291]  7.13
30. ATAATTTAATACTAGTGTACAGAAAAAAAAAAAAAA [XGTACX_site6756]  7.12
31. ATAACCTAATAATACACACACATGAATATATAGAAT [CACACA_site963]  7.09
32. AAATATTCATAGTATACACACATTTATATATAATCA [CACACA_site771]  7.05
33. AATGAATAAATAAACACACACACATATATAAATATG [CACACA_site6160]  7.04
34. TAAACTTTCCAGTGTTGTACATAATAATTATTATAT [XGTACX_site8896]  7.03
35. GTTTAACTGTTTTATACACACAATGTATACAATAAA [CACACA_site2959]  7.02
36. ATGTTTAATTTTTTTTTGTCCCTATAGAAGTGTCAA [CACACA_negctrl_site1103]  7
37. AAAATTATAAATCTTGCACACAAAAAAAATAATAAA [CACACA_site8771]  6.99
38. TTGTTTTTATAAATATTATTACAATGAAAAAAAAAA [TGCATGCA_negctrl_site185]  6.98
39. TTTTTTAAATAATATTGTACAAAAAATGTATAAATA [XGTACX_site3010]  6.97
40. GTTAGAGGGAAAAAGAGTACATATATGTGGATAATT [XGTACX_site2064]  6.96
41. CCAAAATACATTAAACGTACATGTCCTAATAAGATA [XGTACX_site21]  6.96
42. AGGTTATAAATAAATACACACATACAAAAATATGAC [CACACA_site4773]  6.94
43. AATTATTCTATATATTGTACATGTTTGTTTTTTTTT [XGTACX_site3130]  6.93
44. AATCTGATCTTTTAAAGTACACAAAAAAAAAAAAAA [XGTACX_site115]  6.92
45. TATTGTTATGTCGTTATTAACTTTCTTTAATTAATT [CACACA_negctrl_site174]  6.89
46. AAGTGTATACAGAAGAGTACAAACAATTTTTTTCTT [XGTACX_site7387]  6.89
47. TTTAAAATTTTTTTTTTTTTTTTTTTTTTTTTTTAT [TGCATGCA_negctrl_site213]  6.89
48. TAAATATATTCAATCACACACATTCGTTTTTTTTTT [CACACA_site234]  6.87
49. TTGTTGTTATTTAAAACACACATCAATCATCTTAAC [CACACA_site1142]  6.84
50. AGTTTGTCAATCAACACACACCTATTTATTATATAT [CACACA_site6030]  6.79
51. AGAAAATATACAAAACGTACTTATATATTATATCTA [XGTACX_site3104]  6.78
52. TGTTTAAATTTTTTGTTTTTTTTTTTATAAAGCAAA [TGCATGCA_negctrl_site313]  6.7
53. TTTTCATTTATGTATATATTTATTTTGATTTAATGT [GTGCAC_negctrl_site607]  6.67
54. AAAGATATGAAATATACACACTTCTTTGGTATTATT [CACACA_site6352]  6.66
55. TGAAGGTCAGTTCACAGTACCCAGTAACTCTACGGA [XGTACX_site2554]  6.62
56. AACCAATTAGAAGGATCCAGAACTTATTTGTTTTTA [CACACA_negctrl_site1744]  6.56
